For eight cell lines, AUC and IC50 results are on record in the supplement of paper PMC4967469.

Lines with a small IC50 respond at low doses; a limit (>, <) means that the fit lies beyond the doses tested. The AUC spans the tested range (256-fold, ending at the top dose) of the same fit; values near 1 show little effect. For some assays here: Where the top dose is marked as inferred, it was derived from the fitted curves, not read from the paper. For some assays here: Drugs with an entry number were screened twice under separate entries, and the two screens often disagree. Bounds are passed on as bounds.

Assay in all cases: Viability of human cancer cell lines after 72 h of drug (GDSC screen)
Compound in one assay: NCC(=O)Nc1ccc(-n2nc(C(F)(F)F)cc2-c2ccc3c(ccc4ccccc43)c2)cc1 [OSU-03012]
To be noted: top dose 16 µM; top dose inferred. As for the experimental part: (§1)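 Human cancer cell lines in 384-well plates, medium with 10% serum, drug for 72 h over a 256-fold dose range (nine 2-fold or five 4-fold steps up to the top dose). Adherent lines were fixed and stained with the nucleic acid dye Syto60, suspension lines read with resazurin; signal relative to control wells, capped at 0 and 100%. One two-parameter sigmoid per drug and line, fitted in a mixed model over all curves with the slope shared within a line.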

Compound in the next assay: C#Cc1cccc(Nc2ncnc3cc(OC)c(OCCCCCCC(=O)NO)cc23)c1 [CUDC-101]
To be noted: top dose 5.12 µM; top dose inferred. As for the experimental part: as §1

Compound in the next assay: Fc1cc(-c2ccnc(Nc3ccc(-n4cnc(N5CCOCC5)n4)cc3)n2)cc(N2CCOCC2)c1 [JNK-9L]
To be noted: top dose 5.12 µM; top dose inferred. As to the method: as §1

Compound in a further assay: OC[C@H](Cc1ccccc1)Nc1nc(Oc2ccc3c(c2)CCC3)nc2c1ncn2Cc1ccc(-c2ccccc2)cc1 [QS11]
The settings on record: top dose 10.24 µM. As for the experimental part:
as §1

Compound in the next assay: O=c1[nH]cc(F)c(=O)[nH]1 [5-Fluorouracil]
The settings on record: top dose 32 µM; top dose inferred. As to the method: as §1

Compound in another assay: COc1cc(F)c(F)c(Nc2ccc(I)cc2F)c1NS(=O)(=O)C1(C[C@H](O)CO)CC1 [RDEA119]
To be noted: top dose 5 µM, top dose inferred. As for the experimental part:
as §1

Compound in another assay: CC(C)(C)c1cc(NC(=O)Nc2ccc(-c3cn4c(n3)sc3cc(OCCN5CCOCC5)ccc34)cc2)no1 [AC220]
To be noted: top dose 1.024 µM; top dose inferred. As to the method:
as §1

For the cell line TC-71 (Ewing sarcoma, adherent), the AUC with OSU-03012 came out at 0.891; with CUDC-101, 0.461; with JNK-9L, 0.703; with QS11, 0.992; in the assay with 5-Fluorouracil, 0.842; with RDEA119 (screen: GDSC drug entry 1014), 0.973. Besides, the values for the AUC in the assay with RDEA119 (screen: GDSC drug entry 1526) and with AC220 were 0.992 and 0.947, respectively. The IC50 (usually the concentration at which inhibition is half-maximal) was 13.1 µM with OSU-03012; 0.256 µM in the assay with CUDC-101; 1.06 µM with JNK-9L; above 10.2 µM with QS11; 17.1 µM with 5-Fluorouracil; above 5 µM with RDEA119 (screen: GDSC drug entry 1014). Further, the half-maximal inhibitory concentration (IC50) with RDEA119 (screen: GDSC drug entry 1526) is above 5 µM; with AC220, above 1.02 µM.
Turning to TCCSUP (bladder, adherent), the AUC turned out to be 0.722 with OSU-03012; 0.727 with CUDC-101; 0.807 with JNK-9L; 0.928 with QS11; 0.938 with 5-Fluorouracil; 0.859 in the assay with RDEA119 (screen: GDSC drug entry 1014). Further, the AUC in the assay with RDEA119 (screen: GDSC drug entry 1526) was 0.905; with AC220, 0.984. The IC50 with OSU-03012 was 4.72 µM; in the assay with CUDC-101, 1.58 µM; in the assay with JNK-9L it was 3.08 µM; with QS11, above 10.2 µM; in the assay with 5-Fluorouracil it was above 32 µM; in the assay with RDEA119 (screen: GDSC drug entry 1014), above 5 µM. The IC50 with RDEA119 (screen: GDSC drug entry 1526) was above 5 µM; in the assay with AC220 it was above 1.02 µM.
TE-1 (oesophagus, adherent): the AUC in the assay with OSU-03012 is 0.584; with CUDC-101, 0.89; with JNK-9L, 0.897; in the assay with QS11, 0.867; with 5-Fluorouracil it was 0.932; with RDEA119 (screen: GDSC drug entry 1014), 0.861. Besides, the AUC with RDEA119 (screen: GDSC drug entry 1526) is 0.846; with AC220, 0.979. Further, the IC50 in the assay with OSU-03012 was 1.81 µM; with CUDC-101 it was above 5.12 µM; with JNK-9L it was above 5.12 µM; with QS11, above 10.2 µM; with 5-Fluorouracil it was above 32 µM; in the assay with RDEA119 (screen: GDSC drug entry 1014) it was above 5 µM. The figures for the IC50 with RDEA119 (screen: GDSC drug entry 1526) and in the assay with AC220 were above 5 µM and above 1.02 µM, respectively.
Take TE-5 (oesophagus, adherent): the AUC with OSU-03012 is 0.732; with CUDC-101, 0.947; in the assay with JNK-9L, 0.551; in the assay with QS11 it was 0.91; with 5-Fluorouracil, 0.873; with RDEA119 (screen: GDSC drug entry 1014), 0.842. Also, the AUC with RDEA119 (screen: GDSC drug entry 1526) is 0.799; with AC220, 0.984. Also, the half-inhibitory concentration (IC50) with OSU-03012 was 5.14 µM; in the assay with CUDC-101, above 5.12 µM; in the assay with JNK-9L, 0.45 µM; with QS11, above 10.2 µM; with 5-Fluorouracil, above 32 µM; in the assay with RDEA119 (screen: GDSC drug entry 1014) it was 4.32 µM. Further, the concentration for half-maximal inhibition (IC50) with RDEA119 (screen: GDSC drug entry 1526) was 2.82 µM; in the assay with AC220, above 1.02 µM.
For TE-6 (oesophagus, adherent), the AUC in the assay with OSU-03012 stood at 0.695; with CUDC-101, 0.885; in the assay with JNK-9L it was 0.697; with QS11, 0.963; with 5-Fluorouracil, 0.653; with RDEA119 (screen: GDSC drug entry 1014) it was 0.902. In addition, the values for the AUC in the assay with RDEA119 (screen: GDSC drug entry 1526) and with AC220 were 0.981 and 0.985, respectively. The 50% inhibitory concentration (IC50) was 3.91 µM in the assay with OSU-03012; above 5.12 µM with CUDC-101; 1.26 µM with JNK-9L; above 10.2 µM in the assay with QS11; 5.75 µM in the assay with 5-Fluorouracil; above 5 µM with RDEA119 (screen: GDSC drug entry 1014). Moreover, the results for the IC50 with RDEA119 (screen: GDSC drug entry 1526) and with AC220 were above 5 µM and above 1.02 µM, respectively.
Consider TE-8 (oesophagus, adherent), for which the AUC in the assay with OSU-03012 stood at 0.444; with CUDC-101, 0.974; with JNK-9L, 0.6; with QS11, 0.745; with 5-Fluorouracil, 0.732; with RDEA119 (screen: GDSC drug entry 1014) it was 0.699. Moreover, the AUC turned out to be 0.783 with RDEA119 (screen: GDSC drug entry 1526) and 0.985 with AC220. Also, the IC50 is 0.695 µM with OSU-03012; above 5.12 µM with CUDC-101; 0.614 µM with JNK-9L; 3.43 µM in the assay with QS11; 9.71 µM in the assay with 5-Fluorouracil; 1.19 µM with RDEA119 (screen: GDSC drug entry 1014). Also, the IC50 is 2.27 µM with RDEA119 (screen: GDSC drug entry 1526) and above 1.02 µM in the assay with AC220.
Take TE-9 (oesophagus, adherent): the AUC was determined as 0.666 with OSU-03012; 0.976 in the assay with CUDC-101; 0.345 with JNK-9L; 0.921 in the assay with QS11; 0.914 with 5-Fluorouracil; 0.944 with RDEA119 (screen: GDSC drug entry 1014). The AUC with RDEA119 (screen: GDSC drug entry 1526) is 0.914; with AC220, 0.987. For the same cell line, the IC50 in the assay with OSU-03012 was 2.95 µM; with CUDC-101 it was above 5.12 µM; with JNK-9L it was 0.116 µM; in the assay with QS11, above 10.2 µM; with 5-Fluorouracil, above 32 µM; with RDEA119 (screen: GDSC drug entry 1014), above 5 µM. Also, the IC50 with RDEA119 (screen: GDSC drug entry 1526) was above 5 µM; with AC220, above 1.02 µM.
On to TE-10 (oesophagus, adherent), for which the AUC with OSU-03012 is 0.634; with CUDC-101 it was 0.903; in the assay with JNK-9L, 0.512; with QS11, 0.845; in the assay with 5-Fluorouracil, 0.865; in the assay with RDEA119 (screen: GDSC drug entry 1014) it was 0.884. Further, the figures for the AUC in the assay with RDEA119 (screen: GDSC drug entry 1526) and with AC220 were 0.798 and 0.988, respectively. The concentration for half-maximal inhibition (IC50) with OSU-03012 was 2.33 µM; in the assay with CUDC-101, above 5.12 µM; in the assay with JNK-9L, 0.346 µM; with QS11, 7.17 µM; with 5-Fluorouracil it was 27.4 µM; with RDEA119 (screen: GDSC drug entry 1014) it was above 5 µM. Besides, the IC50 with RDEA119 (screen: GDSC drug entry 1526) is 2.33 µM; in the assay with AC220 it was above 1.02 µM.
